The whole screen tested about 48,000 compounds, of which about 1,200 (2.5%) were called active. Not shown: some 2% with an inconclusive outcome.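 The calls were made as follows: active = activation of at least 60% and not above a set upper limit (about 1 call in 100 departs from these limits); inconclusive = activation of 40% to 60%, or above that upper limit; inactive = activation under 40%.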 This is one part of the list.
These compounds were tested against Probable G-protein coupled receptor 32 (Homo sapiens) (UniProt O75388) (assay: qHTS for Agonists of Human Resolvin D1 Receptor DRV1). Conditions: CHO-K1 GPR32 beta-arrestin PathHunter luminescence, 90 min; at 76.9 µM; stronger effect = higher value; zero percent set by DMSO-only wells.
Summary of the method: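 Beta-arrestin recruitment read-out: luminescence from complemented beta-Gal in CHO-K1 GPR32 PathHunter cells, measured 1 h after detection reagent at ambient temperature following 90 min compound exposure at 37 °C; DMSO served as basal (EC0) control.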

Chain of UniProt O75388 (O75388 whole entry, looked up): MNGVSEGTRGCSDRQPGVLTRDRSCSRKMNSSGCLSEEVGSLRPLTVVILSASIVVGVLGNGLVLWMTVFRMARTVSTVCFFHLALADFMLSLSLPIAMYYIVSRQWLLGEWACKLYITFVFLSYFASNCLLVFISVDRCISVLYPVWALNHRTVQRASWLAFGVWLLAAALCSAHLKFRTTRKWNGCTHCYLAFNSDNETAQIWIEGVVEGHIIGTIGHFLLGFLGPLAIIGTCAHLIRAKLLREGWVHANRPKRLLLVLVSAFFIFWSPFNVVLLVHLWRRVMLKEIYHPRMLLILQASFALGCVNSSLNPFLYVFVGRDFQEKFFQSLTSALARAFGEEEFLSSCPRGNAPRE

activation, inactive:
CCc1ccc(C(=O)c2cn(CC(=O)Nc3cc(OC)cc(OC)c3)c3ccc(CC)cc3c2=O)cc1 7.97%
CC1CN(C(=O)N2CCC(C(=O)NCc3ccco3)CC2)c2ccccc2O1 (centres undefined) 2.67%
O=C(Nc1nc2ccccc2n1CCOc1ccccc1Cl)c1ccccc1 -8.25%
Cc1cccc(CN2C(=O)c3ccccc3Sc3ccc(C(=O)NCCCN4CCOCC4)cc32)c1 -21.4%
CC1CCN(c2nc3ccccc3nc2C(F)(F)F)CC1 -17.9%
CCOc1cccc(C2c3c(oc4ccc(F)cc4c3=O)C(=O)N2c2cc(C)ccn2)c1 (centres undefined) -4.79%
Cc1ccc2ncc(C(=O)c3ccc(C)c(C)c3)c(S(=O)(=O)c3ccccc3)c2c1 -35.9%
CCN(CC)S(=O)(=O)c1nnc(NC(=O)c2ccc(C)cc2)s1 31.8%
CC1OC1P(=O)(O)O (centres undefined) -14%
COc1ccccc1C1C(C(=O)Nc2ccccc2)=C(C)Nc2nc(-c3ccccc3)nn21 (centres undefined) 17.3%
COc1ccccc1N1CCN(Cc2nc(-c3cc(OC)c(OC)c(OC)c3)no2)CC1 -4.78%
CC1CCCCN1CCCNC(=O)Cn1ncc2c3ccccc3n(Cc3ccccc3)c2c1=O (centres undefined) -13.7%
CC(=O)N1CCc2cc(S(=O)(=O)NC(Cc3ccccc3)C(=O)Nc3cc(C)cc(C)c3)ccc21 (centres undefined) -12.5%
Cc1ccc(NC(=O)CSc2nc3n[nH]c(C)c3c(=N)n2-c2ccccc2C)cc1C 18.5%
CCN(Cc1ccccc1)C(=O)c1cn(-c2cccc(OC)c2)c(=O)c2ccccc12 -18.1%
COc1ccc(CCN2C(=O)CN(C3CCCCCC3)C(=O)C2c2ccc(Cl)cc2)cc1OC (centres undefined) -33.3%
Cc1ccc(Cl)cc1N1CCN(C(=O)CCc2nnc3n(C)c(=O)c4ccccc4n23)CC1 -3.06%
O=C(Cn1ncc2c3ccccc3n(Cc3ccccc3)c2c1=O)NCCCN1CCCCC1 -4.07%
O=C(O)c1ccc2c(c1)N(Cc1ccc(F)cc1)C(=O)c1ccccc1S2=O (centres undefined) 5.27%
Cc1cc(NC(=O)c2cc(-c3ccc(F)cc3)on2)nn1Cc1ccc(Cl)cc1 45%
COc1ccccc1CNS(=O)(=O)c1c(C)nc2sc(C)cn2c1=O 0.543%
Cc1ccc(Cl)cc1NC(=O)c1cc(S(=O)(=O)N2CCOCC2)cn1C -3.47%
CCCCN(C)C(=O)C1CCC(Cn2c(=O)[nH]c3ccsc3c2=O)CC1 (centres undefined) 25.6%
O=C(Cn1c(=O)c2cccn2c2ccc(F)cc21)Nc1cccc(F)c1 -16.5%
COC(=O)c1cc(NC(=O)Cn2ncc3c([nH]c4ccccc43)c2=O)cc(C(=O)OC)c1 4.39%
CC1CCN(S(=O)(=O)c2ccc3c(c2)N(CC(=O)NCCN(C)C)C(=O)CS3)CC1 -4.89%
O=C(NCCc1ccccc1)c1ccc2c(c1)CCN2S(=O)(=O)c1ccc(Cl)cc1 0.407%
Cc1ccc2c(CC(=O)Nc3ccc(S(=O)(=O)N4CCCC(C)C4)cc3)coc2c1 (centres undefined) -9.79%
OC(c1ccccc1)c1nc2ccccc2n1Cc1c(F)cccc1Cl (centres undefined) 45.8%
CCOc1ccc(-c2cc3c(=O)n(CC(=O)NCc4ccccc4)ccn3n2)cc1 11.7%
Fc1ccc(-n2nc(-c3ccccc3)c3cnc4ccccc4c32)cc1Cl -0.611%
Cc1oc2ncnc(N3CCOCC3)c2c1C(=O)Nc1ccc(Br)cc1F 16.1%
COCCNC(=O)CSc1nc(-c2ccc(C)cc2)[nH]c1-c1ccc(OC)cc1 -32.5%
O=C(CSc1nc(=O)n(Cc2ccccn2)c2c1CCC2)Nc1cccc(Cl)c1 23.5%
CC(C)CCNC(=O)C1CCC(CNS(=O)(=O)c2cccc3nsnc23)CC1 (centres undefined) -7.26%
CCc1ccc(NC(=O)CN2C(C(=O)OC)=C(c3ccccc3)c3ccccc3S2(=O)=O)cc1 -16.4%
O=C(Nc1ccc(Cl)cc1F)c1cc(S(=O)(=O)NC2CCCCCC2)ccc1F -11.7%
CCCc1nn2c(=O)cc(COC(=O)c3ccccc3NC(=O)c3ccc(OCC)cc3)nc2s1 -10.1%
Cc1cc(N2CCN(c3ccc(F)cc3)CC2)n2cnnc2n1 -5.01%
COc1ccc(NC(=O)Cn2ccn(-c3ccc(C)c(C)c3)c(=O)c2=O)cc1Cl -8.77%
Cc1ccc(-c2c3c(=O)n(C)c(=O)n(C)c3c3c(C)nc4ccccc4n23)cc1 -13.3%
Cc1ccccc1OCC(=O)Nc1ccccc1C(=O)OCc1cc(=O)n2nc(C3CC3)sc2n1 8.79%
Cc1cccc(NC(=O)c2oc3ccccc3c2NC(=O)Cc2coc3cc(C)cc(C)c23)c1 6.43%
Cc1cccc(-c2nc3cc(NC(=O)COc4ccccc4F)ccc3o2)c1 13.1%
Cc1ccc(C(=O)c2cn(Cc3ccccc3)c3ccccc3c2=O)cc1 15.2%
COc1ccc(Cl)cc1NC(=O)CSc1nc(=O)[nH]c2c1CCC2 -15.8%
COC(=O)c1ccccc1NC(=O)Cn1c(=O)n(-c2ccc(C)cc2)c(=O)c2ccccc21 -20.2%
COc1ccc(OCC(=O)Nc2cc(-c3nc4ccccc4o3)ccc2Cl)cc1 1.68%
COc1cc(Nc2nc3c(S(=O)(=O)c4cccc(Cl)c4)nnn3c3ccsc23)cc(OC)c1 -1.41%
CCOc1ccc(NC(=O)Cn2nc(CC)n3c(cc4sccc43)c2=O)cc1 -25.3%
Cc1ccc2c(c1)c1c(c(=O)n(-c3cccc(Cl)c3)c(=O)n1CC(N)=O)n2C -4.06%
Cc1ccc(NC(=O)CSc2nc3nccnc3c(=O)n2CCc2c[nH]c3ccccc23)cc1C -5.19%
O=C1Nc2ccccc2C1Cc1ccc(Br)cc1 (centres undefined) -20.8%
COc1ccccc1OCCNCC(O)COc1cccc2[nH]c3ccccc3c12 (centres undefined) 2.9%

— PubChem BioAssay AID1346428 (National Center for Advancing Translational Sciences (NCATS), 2018)
